Assay results published in PubChem BioAssay AID1347073 (National Center for Advancing Translational Sciences (NCATS), 2019).
About 200 (0.44%) of roughly 45,000 compounds were called active. Inconclusive results (about 7%) are left out. Calls follow the shape of the dose curve; as a rule, active = well fitted activation curve with a large enough effect; inconclusive = small, poorly fitted or top-dose-only effect; inactive = no such curve, though single readings can be large or run the other way. The list shows a part of the results.

Assay: qHTS of TDP-43 Inhibitors: NCGC Sytravon Library Screen; also: 0% is about no effect; nearly all actives have a fitted effect of over 55% in size
Conditions: yeast TDP-43 toxicity rescue, BacTiter-Glo growth, 24 h; series mostly up to 46.1 µM; growth rescue (activation): at the top concentration
Outline: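 TDP-43-expressing yeast, pregrown in raffinose, seeded at OD600 0.02 in galactose medium with compound for 24 hr at 30 deg C. Growth read by BacTiter-Glo luminescence, so rescue of toxicity appears as activation.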

| Compound | growth rescue (activation) |
| --- | --- |
| O=C1c2ccccc2NC(c2ccc([N+](=O)[O-])cc2)N1O (stereo not given) | inactive: -43.4% |
| CC(=O)c1ccc(NC(=S)N2CCN(CCN3C(=O)c4cccc5cccc(c45)C3=O)CC2)cc1 | inactive: -20.4% |
| O=C1CC(N2CCN(c3ncccn3)CC2)C(=O)N1CCc1ccccc1 (stereo not given) | inactive: -6.3% |
| COC(=O)c1cc(Cl)c(NC(=O)/C=C/c2ccc(OC)cc2)cc1OC | inactive: 0.714% |
| O=c1cnnc(Nc2ccccc2)[nH]1 | inactive: 4.03% |
| Cc1ccccc1OCC(=O)OCC(=O)NC1CCCCCC1 | inactive: 12.7% |
| COc1ccccc1CC1(C)C(=O)Nc2ccc(OC(F)(F)F)cc21 (stereo not given) | inactive: -16.1% |
| O=S(=O)(N=C(NS(=O)(=O)c1ccc(Cl)cc1)c1ccccc1)c1ccc(Cl)cc1 | inactive: 15.6% |
| Cc1[nH]nc(S(=O)CC(=O)O)c1[N+](=O)[O-] (stereo not given) | inactive: 0.742% |
| COC(=O)Cc1ccc(NC(=S)N2CCN(c3cccc(O)c3)CC2)cc1 | inactive: 4.02% |
| CC(C)c1ccc(C(=O)NNC(=O)c2ccncc2)cc1 | inactive: 19.6% |
| O=C(O)COc1ccc(/C=N/Nc2nc(Nc3ccccc3)nc(N3CCCCC3)n2)cc1 | inactive: -8.41% |
| CCOc1ccc(/C(O)=C2/C(=O)C(=O)N(CCN(C)C)C2c2ccccc2)cc1Cl (stereo not given) | inactive: 13.1% |
| Cc1ccc(CN2CCSc3ccc(C(=O)NC4CCN(Cc5ccccc5)CC4)cc32)cc1 | inactive: 7.78% |
| N=c1c(C(=O)NC2CCCCC2)cc2c(=O)n3ccccc3nc2n1Cc1ccco1 | inactive: -5.13% |
| CC(=O)Nc1ccc(NC(=O)C2CCN(C(=O)c3ccc([N+](=O)[O-])cc3)CC2)cc1 | inactive: -5.53% |
| COc1ccccc1CNC(=O)CCc1cn(C)c2ccccc12 | inactive: 22.4% |
| NS(=O)(=O)c1ccc(NC(=S)N2CCN(Cc3ccc4c(c3)OCO4)CC2)cc1 | inactive: -7.7% |
| COc1cc(C2C3=C(CCCC3=O)Nc3[nH]n(-c4ccccc4)c(=O)c32)ccc1OC(C)=O (stereo not given) | inactive: 7.54% |
| CNc1cc(-c2c(OC)cccc2OC)ncn1 | inactive: -5.44% |
| Cc1ccc(S(=O)(=O)Nc2ccccc2)cc1C(=O)N1CCCC1 | inactive: 8.79% |
| CCOc1ccccc1C1NC(=O)NC(C)=C1C(=O)OC1CCCC1C (stereo not given) | inactive: -11.7% |
| COc1ccc(/C=N/NC(=O)CNc2ccc(Br)cc2)c(C(=O)O)c1OC | inactive: 2.2% |
| CCC(CO)NCc1sccc1C (stereo not given) | inactive: 7.06% |
| Cc1cc(Cc2ccc(N)c(C)c2)ccc1N | inactive: 5.71% |
| Cc1ccccc1C(=O)NCCCn1ccnc1 | inactive: 9.64% |
| O=C(CC(NC(=O)c1ccccc1)c1ccccc1)Nc1cccc2ccccc12 (stereo not given) | inactive: 6.05% |

| Compound | growth rescue (activation) |
| --- | --- |
| O=C(c1ccc2c(c1)N(Cc1ccccc1)C(=O)c1ccccc1S2(=O)=O)N1CCCC1 | inactive: 9.25% |
| O=C(O)c1nn(CC(=O)N2CCN(c3ccccc3)CC2)c(=O)c2ccccc12 | inactive: 9.77% |
| CCCn1c(N)c(N(CCOC)C(=O)c2ccc(C#N)cc2)c(=O)[nH]c1=O | inactive: -10.4% |
| CC(=O)c1ccccc1OC(=O)CCN1C(=O)c2ccccc2C1=O | inactive: -4.92% |
| COc1cc(C(=O)NCCCN(C)C)ccc1OCC(=O)Nc1cccc(C(F)(F)F)c1 | inactive: -1.17% |
| CCOC(=O)C1CCN(C(=O)/C=C/c2ccc(S(=O)(=O)N3CCOCC3)cc2)CC1 | inactive: 11% |
| CN(c1ccc(C(=O)N/N=C/c2cccc([N+](=O)[O-])c2)cc1)S(=O)(=O)c1ccccc1 | inactive: 4.54% |
| Nc1nnnn1/N=C/c1cc(Cl)cc(Cl)c1O | inactive: -6.94% |
| CCN(CC)C(=S)SCC(=O)Nc1nc(-c2ccccc2)c(-c2ccccc2)o1 | inactive: 5.33% |
| CNCCOc1nc(N2CCOCC2)nc(C)c1[N+](=O)[O-] | inactive: 5.41% |
| Cc1ccccc1OCc1nnc(SC(C)C(=O)O)n1Cc1ccccc1 (stereo not given) | inactive: -17.2% |
| Cc1ccc(C)n1NC(=O)c1cccs1 | inactive: 1.51% |
| Cc1cccc(OCCCn2c(=O)oc3ccccc32)c1 | inactive: 17.8% |
| CSc1nc2ccc(NC(=O)c3cc4ccccc4o3)cc2s1 | inactive: -6.03% |
| COc1cc(N(C(=O)Cc2cccs2)C(C(=O)NC2CCCCC2)c2ccc(C)cc2)ccc1-n1cnnn1 (stereo not given) | inactive: -2.9% |
| CCc1ccc(OCC(=O)NC(=S)Nc2ccc(C(=O)O)cc2)cc1 | inactive: 26% |
| N#CCCn1cc(C=C(C#N)C#N)c(-c2ccc(Cl)cc2)n1 | inactive: -14.8% |
| CCOc1ccc(S(=O)(=O)/N=C(\N)c2ccccc2)cc1 | inactive: 10.9% |
| c1ccc(Cc2noc(CN3CCN(Cc4ccc5c(c4)OCO5)CC3)n2)cc1 | inactive: -7.19% |
| CCOC(=O)Cc1csc(N/C(=N/S(=O)(=O)c2cc(Br)ccc2OCC)c2ccccc2)n1 | inactive: -9.64% |
| OC(c1ccccc1)(c1nc(-c2cc(F)cc(F)c2)cs1)C(F)(F)F (stereo not given) | inactive: -92.7% |
| COc1ccc(CNC(=O)CN2CCC(NC(=O)c3cccc(OC)c3)CC2)cc1 | inactive: 4.03% |
| O=C(COC(=O)/C=C/c1ccccc1)NNC(=O)c1ccccc1F | inactive: 10.7% |
| CCNC(=S)N1CCN(S(=O)(=O)c2ccc(Cl)s2)CC1 | inactive: -7.32% |
| O=c1cc(CN2CCN(S(=O)(=O)c3cccc(Cl)c3)CC2)c2ccc(O)cc2o1 | inactive: -9.13% |
| COc1ccc(OC)c(NC(=O)CSC2=C(C#N)C(c3ccco3)C3=C(CCCC3=O)N2)c1 (stereo not given) | inactive: 24.8% |
| O=C(c1cccnc1Nc1ccccc1F)N1CCOCC1 | inactive: -10.1% |

| Compound | growth rescue (activation) |
| --- | --- |
| CCOC(=O)c1ccccc1NC(=O)NC(C)c1c(-n2cccc2)sc(C)c1C (stereo not given) | inactive: 15.7% |
| CC(Sc1ncnc2sccc12)C(=O)Nc1ccc(S(N)(=O)=O)cc1 (stereo not given) | inactive: 6.94% |
| Cc1cc(CN(C)C(=O)CCc2nnc(Cc3cccc(C(F)(F)F)c3)o2)on1 | inactive: 8.43% |
| O=C(Nc1ccc(Cl)c(Cl)c1)C1C2C=CC3(O2)C1C(=O)N(CCN1CCCCC1)C3C(=O)NC1CCCCC1 (stereo not given) | inactive: -1.04% |
| CC1CCCN(C(=O)/C(=C/c2ccco2)NC(=O)c2ccccc2)C1 (stereo not given) | inactive: -9.61% |
| CCN1/C(=C/c2cc[n+](C)cc2)C=Cc2cc(C)ccc21 | inactive: 4.68% |
| C=CCn1c(C)cc(C(=O)COC(=O)/C=C/c2ccc(OC)cc2)c1C | inactive: 11% |
| CCn1ccnc1CNC(=O)CC1C(=O)NCCN1CC(c1ccccc1)c1ccccc1 (stereo not given) | inactive: 3.55% |
| CC(C)NC(=O)C1CCN(C2CCN(Cc3cn[nH]c3-c3ccccc3)CC2)CC1 | inactive: 8.31% |
| O=C(NCc1cccnc1)c1cc(Sc2ccc(F)cc2F)nc2ccccc12 | inactive: 1.65% |
| CC(C)Cn1c(SCC(=O)Nc2ccc(Cl)cc2F)nc(O)cc1=O | inactive: -6.57% |
| COc1ccc(C(=O)N(Cc2ccc(N(C)C)cc2)Cc2ccco2)cc1Cl | inactive: -4.57% |
| O=C(NC(=S)NCCc1ccccn1)c1ccco1 | inactive: -22.2% |
| CC1(C(=O)NS(=O)(=O)c2cccc(C#N)c2)CCN1C(=O)C1(c2ccc(Cl)cc2)CCC1 (stereo not given) | inactive: 13.9% |
| CCOC(CNC(=O)c1ccc2c(c1)ncn2-c1ccccc1OC)OCC | inactive: 5.81% |
| COc1ccc(N(C(=O)c2snc(C(N)=O)c2N)C(C(=O)NCc2ccc(F)cc2)c2ccc(C)o2)c(OC)c1 (stereo not given) | inactive: 6.94% |
| Cc1cccc(Nc2ccc(C(=O)N3CCOCC3)cn2)c1 | inactive: 11.5% |
| COCCn1c(SCc2ccccc2)nc2c1c(=O)[nH]c(=O)n2C | inactive: 2.26% |
| N#CC(C(=O)Nc1cccc(Cl)c1)=C1Nc2ccccc2N1 | inactive: 21% |
| CCN(CC)C(=O)CS(=O)CC(=O)Nc1cc(OCCOC)c(Cl)cc1Cl (stereo not given) | inactive: 0.824% |
| COc1ccc(Cn2c(=O)[nH]c3cc(C(=O)NC4CCN(Cc5ccccc5)CC4)ccc32)cc1 | inactive: 8.42% |
| Cc1nnc(NC(=O)C2CCCN2C(=O)Nc2ccccc2)s1 (stereo not given) | inactive: -17.9% |
| Cc1ccc(C(=O)Nc2ccc(S(=O)(=O)Nc3cnc4ccccc4n3)cc2)cc1 | inactive: 5.52% |
| COc1cc2c(cc1NC(=O)c1ccccc1F)CCCC2 | inactive: -10.1% |
| CC1(C(=O)Nc2ccc(Cl)c(Cl)c2)CCN1C(=O)Cc1cccc2ccccc12 (stereo not given) | inactive: 2.4% |
| Cc1cc(C)cc(OCc2nnc(SCC(=O)N3CCCCC3)o2)c1 | inactive: 27.1% |
| CCOC(=O)Cc1c(Cl)c2ccccc2[nH]c1=O | inactive: 8.4% |

| Compound | growth rescue (activation) |
| --- | --- |
| COC(=O)c1cc(COC(=O)c2ccc(OC)c(S(=O)(=O)N3CCCC3)c2)oc1C | inactive: -25.8% |
| CN(C)C(=S)NC(=O)C12CC3(C)CC(C)(CC(C)(C3)C1)C2 | inactive: 18.6% |
| COc1ccc(OCC(=O)NS(=O)(=O)c2ccc(Cl)cc2)cc1 | inactive: 16.6% |
| COc1ccc(C)cc1N(C(=O)CNC(=O)c1ccco1)C(C(=O)NCC1CCCO1)c1ccccc1 (stereo not given) | inactive: -8.77% |
| O=C(/C=C/c1ccc([N+](=O)[O-])cc1)OCC(=O)N1CCCCCC1 | inactive: 9.9% |
| CCc1ccc(/C=C(/C#N)C(N)=S)s1 | inactive: -6.07% |
| COc1cccc(-c2nc(N3CCN(c4ccccc4)CC3)c3ccccc3n2)c1O | inactive: -3.87% |
| Cc1ccc(-n2nc3ccc(NC(=O)c4oc5ccc(C)cc5c4C)cc3n2)cc1 | inactive: 9.23% |
| COc1cc(NC(=O)COc2ccc(Br)cc2)ccc1NC(=O)C(C)C | inactive: -1.32% |
| O=C(COc1ccc(/C=N/NC(=O)c2ccncc2)cc1)Nc1ccc([N+](=O)[O-])cc1 | inactive: -12.3% |
| CC1=NNC(=O)C1Oc1ccccc1 (stereo not given) | inactive: 11.3% |
| CCCn1cc(CN2CCC(N3CCC(C(=O)N4CCOCC4)CC3)CC2)c(C)n1 | inactive: 18.4% |
| COc1ccc(NC(=O)N2CCCC2C(=O)Nc2ccccc2)cc1 (stereo not given) | inactive: 27.3% |
| Nc1cc(N)nc(SCc2nnnn2-c2ccc(Cl)cc2)n1 | inactive: -12% |
| CCCCCCOC(=O)Cc1c(C)nc(-c2ccccc2)[nH]c1=O | inactive: 36.3% |
| Cc1cc(N2C(=O)C(O)=C(C(=O)c3ccco3)C2c2cccc(Oc3ccccc3)c2)no1 (stereo not given) | inactive: -15.9% |
| O=C(C1=C(O)C(=O)N(CCN2CCOCC2)C1c1cccc([N+](=O)[O-])c1)c1cccs1 (stereo not given) | inactive: 8.63% |
| Cc1ccc2[nH]cc(S(=O)(=O)c3ccc(F)cc3)c(=O)c2c1 | inactive: -4.95% |
| Cc1cc(C(F)(F)F)nn1CC(=O)Nc1cccnc1 | inactive: 5.36% |
| O=C(COC(=O)[C@@H]1CCCN1S(=O)(=O)c1ccccc1F)Nc1ccc(OC(F)F)cc1 | inactive: -6.89% |
| O=C(NN1CCOCC1)c1sc2cccc(F)c2c1Cl | inactive: 12% |
| Brc1ccc(OCc2cn3ccccc3n2)cc1 | inactive: 17.4% |
| COc1ccc(C2CC(c3ccccc3)=NN2C(=O)COC(=O)c2cccc(O)c2)cc1 (stereo not given) | inactive: 8.07% |
| CCc1ccccc1NC(=O)CN(C)C(=O)COC(=O)c1ccccc1Cl | inactive: 30.7% |
